Test results reported in the supplement of paper PMC12217912.
The other results are listed elsewhere or left out. Sequences were assembled here from the parent chain. Inactive controls read about 0.05.

B1: TEV protease; numbered along this chain (parent)
chain: MGESLFKGPRDYNPISSSICHLTNESDGHTTSLYGIGFGPFIITNKHLFRRNNGTLVVQSLHGVFKVKDTTTLQQHLVDGRDMIIIRMPKDFPPFPQKLKFREPQREERICLVTTNFQTKSMSSMVSDTSCTFPSGDGIFWKHWIQTKDGQCGSPLVSTRDGFIVGIHSASNFTNTNNYFTSVPKNFMELLTNQEAQQWVSGWRLNADSVLWGGHKVFMVKPEEPFQPVKEATQL

Variants of: B1
Assay: raw area under fraction-flipped curve 0-4 h after induction (AUC4h, not background-subtracted), DNA-recorder readout of cleavage of the substrate (dimensionless); higher = more cleavage of the substrate by the protease variant
Settings: temperature: 34 °C; time window: 0-4 h after rhamnose induction
Protocol: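 In vivo DNA recorder in E. coli TOP10(DE3) ΔrhaA at 34 °C. Each TEVp single-site mutant (parent TEVp 0) is paired with a single-site variant of the 7-mer TEVs (canonical ENLYFQ|S). The substrate sits between flexible linkers in a Bxb1-sfGFP-TEVs-SsrA fusion, so cleavage stabilises Bxb1 and speeds flipping of a recombination array, read by NGS. The value is the raw area under the fraction-flipped curve over 0-4 h after rhamnose induction (AUC4h), with ≥20 reads per time point. It is not background-subtracted; inactive controls average about 0.047.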
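Also: Bxb1 expression induced with 0.2% (w/v) L-rhamnose at OD600 near 0.5, cultures sampled hourly, flipped fraction per protease–substrate barcode pair counted by paired-end Illumina sequencing.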

Variant	area with substrate ANLYFQS	area with substrate CNLYFQS	area with substrate DNLYFQS	area with substrate FNLYFQS	area with substrate GNLYFQS	area with substrate HNLYFQS	area with substrate INLYFQS	area with substrate KNLYFQS	area with substrate LNLYFQS	area with substrate MNLYFQS	area with substrate NNLYFQS	area with substrate PNLYFQS	area with substrate SNLYFQS	area with substrate TNLYFQS	area with substrate WNLYFQS	area with substrate YNLYFQS	area with substrate QNLYFQS	area with substrate VNLYFQS	area with substrate RNLYFQS
I36A	0.11	0.0447	0.0726	0.0408	0.0549	0.0602	0.0334	0.0527	0.0515	0.0549	0.0533	0.0416	0.0546	0.0588	0.051	0.0364	–	–	–
I36V	0.063	0.097	0.0946	0.0625	–	0.0693	–	0.0796	0.0719	0.0691	0.0682	–	0.0653	–	–	0.0695	0.0596	0.0686	–
I36D	0.0365	0.0372	0.059	0.0399	–	0.0424	0.0427	0.0491	0.0462	0.0459	–	0.0453	0.0385	0.037	0.0409	0.0331	–	0.0335	–
I36E	0.0367	0.0505	0.0458	–	0.0482	0.0439	0.0441	0.055	0.0499	0.0396	0.0545	0.0452	0.0511	0.033	0.0387	–	0.0429	0.0427	–
G39W	0.0442	0.0464	0.0464	0.0429	–	0.0525	–	0.0592	0.0415	–	0.0421	0.0367	0.0386	0.0442	0.0035	0.0449	–	0.0685	0.0554
G39Q	0.0186	0.0407	0.0542	–	0.0114	0.0605	0.0379	0.0558	0.0439	0.0518	0.0417	0.041	0.0414	0.0373	0.034	0.0716	0.0472	0.0463	–
G37P	0.0408	0.0405	0.0547	0.0403	0.0589	0.0571	0.0583	0.0429	–	–	0.0416	0.0508	0.0287	0.0427	–	–	–	–	–
K46P	0.0404	0.0542	0.0486	0.0515	0.0976	0.0673	0.0635	0.0685	0.0627	0.036	–	0.046	0.0483	0.0575	–	–	–	0.0529	–
D27K	0.0605	0.0562	0.0804	–	–	0.0577	–	–	0.0679	–	–	–	0.0599	0.063	0.0662	0.051	–	0.0612	–
D27A	0.0548	0.0617	0.0764	0.0534	0.068	0.075	0.0795	0.0664	0.0623	–	0.0501	0.0594	0.0747	0.0595	0.0603	0.0591	0.0645	–	–
D27Q	0.0718	0.0751	0.0746	–	–	0.0822	0.0737	–	0.0509	0.0668	–	0.0751	0.0792	0.077	0.0615	–	–	0.0538	–
F49V	0.0415	0.0492	0.0848	0.0547	–	–	0.0567	0.084	0.0617	0.0581	0.0528	0.0504	0.0581	0.0492	–	–	–	–	–
F49K	0.0553	0.0536	0.0627	–	0.0561	0.051	0.0531	0.0419	0.0558	–	0.05	0.0415	–	0.0556	0.0455	0.0506	0.0528	0.0566	0.0502
F49R	0.0577	0.0441	0.0484	0.0506	0.0574	0.0499	–	0.0657	0.0533	–	0.0431	0.0558	0.0655	0.0615	0.0572	0.0526	0.0738	0.0503	–
F49P	0.0575	0.0627	0.0604	–	0.0524	0.0527	0.052	–	–	0.0491	–	0.073	0.0476	0.0552	0.054	0.0575	–	0.0577	–
F49G	0.0609	0.0503	0.0553	–	0.0555	0.0512	0.0517	0.058	0.067	0.0534	0.0554	0.0612	0.0578	0.0527	0.0594	0.0444	–	–	–
N45I	0.0498	0.0575	0.0745	0.0483	–	0.0514	0.0511	0.0907	0.065	0.0468	0.0475	–	0.0537	0.0575	0.052	0.0586	–	0.0155	–
N45H	0.0593	0.0529	0.0551	–	0.0576	0.0517	0.0378	0.084	0.0653	0.0597	0.0578	0.0655	–	0.0717	0.0537	0.0592	–	–	–
N45V	0.0678	0.0521	0.0655	0.0529	0.0563	0.0562	0.0275	0.0711	0.067	0.0597	–	0.0557	0.0583	0.0608	0.059	0.0503	–	0.0485	–
T31P	0.068	0.0477	0.0649	–	–	0.0481	0.0557	0.0468	0.0647	–	0.0586	0.0746	0.0501	0.0466	0.0517	0.0671	–	0.0543	–
T31W	0.0659	0.0838	0.0744	–	–	0.0511	0.0547	–	0.0659	–	0.0608	0.0593	0.0577	0.0576	0.0722	0.0484	–	0.0703	0.0573
T31F	0.0608	0.0691	0.0743	0.0564	–	0.0632	0.0696	–	–	–	–	0.0582	0.0714	0.0608	0.054	0.0597	–	0.0618	–
T30W	0.0731	0.0622	0.086	–	0.0845	0.0743	0.092	0.0643	0.0574	0.0534	0.0664	–	0.0757	0.0805	0.0633	–	–	–	–
T30F	0.0757	0.0775	0.0752	0.0681	0.0675	0.0556	0.0635	0.0646	0.0727	0.0628	0.0594	0.0585	0.0665	0.0569	0.0481	0.0587	0.0512	0.0653	0.0361
